# From the supplement of paper PMC10369915
# This is one part of the list. No stated cut-off is given here; in the data, active = 3.2 or more and inactive = the rest. Only a few entries rise above the background.
# Target: SHP2 C-SH2 domain E139D
# Assay: enrichment score (SH2-bound / input frequency) (ratio); bacterial display of known human phosphotyrosine sites (pTyr-Var adds point mutants) read by sequencing; higher = stronger binding; tyrosines were phosphorylated by kinases first
# Conditions: peptide library: pTyr-Var
# 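Further: displayed peptides selected on beads carrying the immobilized SH2 domain, with library peptides lacking any tyrosine serving as negative controls.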
row,Binder,enrichment score
1,LVRPPYSYLAL [FOXI1_Y126_S129L],inactive: 0.947
2,PSPMPYACCQM [FOXL2_Y215_S217C],inactive: 1.13
3,EIIPFYGMSTF [FNDC3B_Y175_YF],inactive: 0.783
4,GTSLIYWTLFT [G6PC3_Y214],inactive: 0.923
5,ASFGPYTRVQS [FOXL2_Y258_YF],inactive: 0.822
6,SGDVQYRSSVR [FREM2_Y2158_T2153S],inactive: 0.434
7,FARNSYVAGQF [G6PD_Y107_YF],inactive: 0.652
8,KRGIDYILWHM [FRMD1_Y225_R228W],active: 3.89
9,FKELVYETVRV [FSHB_Y76],inactive: 1.07
10,LVRPPYSFSAL [FOXI1_Y126_YF],inactive: 0.922
11,KVPCHYDDPGK [FOXG1_Y246_R244C],inactive: 1.08
12,PSPMPYASCQM [FOXL2_Y215],inactive: 0.558
13,LSCLAYSGKDA [FXN_Y205_S202C],inactive: 1.25
14,GGGGGYNCSSG [FUS_Y232_R234C],inactive: 0.77
15,GTHCHYKAPIV [FZD9_Y569_T573I],active: 3.29
16,GTSLIYWILFT [G6PC3_Y214_T216I],inactive: 2.02
17,YVPSNYVAEDR [FRK_Y104_I100V],inactive: 0.748
18,FKIFLYTLNDN [FN1_Y1975_YF],inactive: 0.71

# Target: SHP2 C-SH2 domain wild-type
# Assay: as above
# Conditions: peptide library: pTyr-Var
row,Binder,enrichment score
1,LVRPPYSYLAL [FOXI1_Y126_S129L],inactive: 1.45
2,PSPMPYACCQM [FOXL2_Y215_S217C],inactive: 1.18
3,EIIPFYGMSTF [FNDC3B_Y175_YF],inactive: 0.75
4,GTSLIYWTLFT [G6PC3_Y214],inactive: 1.05
5,ASFGPYTRVQS [FOXL2_Y258_YF],inactive: 1.78
6,SGDVQYRSSVR [FREM2_Y2158_T2153S],inactive: 0.434
7,FARNSYVAGQF [G6PD_Y107_YF],inactive: 0.709
8,KRGIDYILWHM [FRMD1_Y225_R228W],active: 3.59
9,FKELVYETVRV [FSHB_Y76],inactive: 1.01
10,LVRPPYSFSAL [FOXI1_Y126_YF],inactive: 0.874
11,KVPCHYDDPGK [FOXG1_Y246_R244C],inactive: 1.09
12,PSPMPYASCQM [FOXL2_Y215],inactive: 0.663
13,LSCLAYSGKDA [FXN_Y205_S202C],inactive: 1.65
14,GGGGGYNCSSG [FUS_Y232_R234C],inactive: 0.87
15,GTHCHYKAPIV [FZD9_Y569_T573I],active: 3.4
16,GTSLIYWILFT [G6PC3_Y214_T216I],inactive: 1.82
17,YVPSNYVAEDR [FRK_Y104_I100V],inactive: 0.772
18,FKIFLYTLNDN [FN1_Y1975_YF],inactive: 0.842

# Target: SHP2 N-SH2 domain L43F
# Assay: as above
# Conditions: peptide library: pTyr-Var
row,Binder,enrichment score
1,LVRPPYSYLAL [FOXI1_Y126_S129L],inactive: 1.31
2,PSPMPYACCQM [FOXL2_Y215_S217C],inactive: 1
3,EIIPFYGMSTF [FNDC3B_Y175_YF],inactive: 0.53
4,GTSLIYWTLFT [G6PC3_Y214],inactive: 0.929
5,ASFGPYTRVQS [FOXL2_Y258_YF],inactive: 0.763
6,SGDVQYRSSVR [FREM2_Y2158_T2153S],inactive: 0.428
7,FARNSYVAGQF [G6PD_Y107_YF],inactive: 0.62
8,KRGIDYILWHM [FRMD1_Y225_R228W],active: 3.56
9,FKELVYETVRV [FSHB_Y76],inactive: 0.991
10,LVRPPYSFSAL [FOXI1_Y126_YF],inactive: 1.06
11,KVPCHYDDPGK [FOXG1_Y246_R244C],inactive: 1.18
12,PSPMPYASCQM [FOXL2_Y215],inactive: 0.534
13,LSCLAYSGKDA [FXN_Y205_S202C],inactive: 1.34
14,GGGGGYNCSSG [FUS_Y232_R234C],inactive: 0.642
15,GTHCHYKAPIV [FZD9_Y569_T573I],inactive: 2.79
16,GTSLIYWILFT [G6PC3_Y214_T216I],inactive: 1.88
17,YVPSNYVAEDR [FRK_Y104_I100V],inactive: 0.769
18,FKIFLYTLNDN [FN1_Y1975_YF],inactive: 1.44

# Target: SHP2 N-SH2 domain T42A
# Assay: as above
# Conditions: peptide library: pTyr-Var
row,Binder,enrichment score
1,LVRPPYSYLAL [FOXI1_Y126_S129L],active: 5.04
2,PSPMPYACCQM [FOXL2_Y215_S217C],inactive: 0.977
3,EIIPFYGMSTF [FNDC3B_Y175_YF],inactive: 0.618
4,GTSLIYWTLFT [G6PC3_Y214],inactive: 0.912
5,ASFGPYTRVQS [FOXL2_Y258_YF],inactive: 1.13
6,SGDVQYRSSVR [FREM2_Y2158_T2153S],inactive: 0.373
7,FARNSYVAGQF [G6PD_Y107_YF],inactive: 0.595
8,KRGIDYILWHM [FRMD1_Y225_R228W],inactive: 3.15
9,FKELVYETVRV [FSHB_Y76],inactive: 0.88
10,LVRPPYSFSAL [FOXI1_Y126_YF],inactive: 0.851
11,KVPCHYDDPGK [FOXG1_Y246_R244C],inactive: 0.884
12,PSPMPYASCQM [FOXL2_Y215],inactive: 0.606
13,LSCLAYSGKDA [FXN_Y205_S202C],inactive: 1.06
14,GGGGGYNCSSG [FUS_Y232_R234C],inactive: 0.635
15,GTHCHYKAPIV [FZD9_Y569_T573I],inactive: 2.55
16,GTSLIYWILFT [G6PC3_Y214_T216I],inactive: 2.4
17,YVPSNYVAEDR [FRK_Y104_I100V],inactive: 0.775
18,FKIFLYTLNDN [FN1_Y1975_YF],inactive: 0.76

# Target: SHP2 N-SH2 domain T52S
# Assay: as above
# Conditions: peptide library: pTyr-Var
row,Binder,enrichment score
1,LVRPPYSYLAL [FOXI1_Y126_S129L],inactive: 1.32
2,PSPMPYACCQM [FOXL2_Y215_S217C],inactive: 0.811
3,EIIPFYGMSTF [FNDC3B_Y175_YF],inactive: 0.584
4,GTSLIYWTLFT [G6PC3_Y214],inactive: 1.22
5,ASFGPYTRVQS [FOXL2_Y258_YF],inactive: 0.788
6,SGDVQYRSSVR [FREM2_Y2158_T2153S],inactive: 0.451
7,FARNSYVAGQF [G6PD_Y107_YF],inactive: 0.529
8,KRGIDYILWHM [FRMD1_Y225_R228W],active: 3.24
9,FKELVYETVRV [FSHB_Y76],inactive: 0.822
10,LVRPPYSFSAL [FOXI1_Y126_YF],inactive: 1.13
11,KVPCHYDDPGK [FOXG1_Y246_R244C],inactive: 0.807
12,PSPMPYASCQM [FOXL2_Y215],inactive: 0.499
13,LSCLAYSGKDA [FXN_Y205_S202C],inactive: 1.1
14,GGGGGYNCSSG [FUS_Y232_R234C],inactive: 0.6
15,GTHCHYKAPIV [FZD9_Y569_T573I],inactive: 3.19
16,GTSLIYWILFT [G6PC3_Y214_T216I],inactive: 2.03
17,YVPSNYVAEDR [FRK_Y104_I100V],inactive: 0.767
18,FKIFLYTLNDN [FN1_Y1975_YF],inactive: 1.64

# Target: SHP2 N-SH2 domain wild-type
# Assay: as above
# Conditions: peptide library: pTyr-Var
row,Binder,enrichment score
1,LVRPPYSYLAL [FOXI1_Y126_S129L],inactive: 0.865
2,PSPMPYACCQM [FOXL2_Y215_S217C],inactive: 1.06
3,EIIPFYGMSTF [FNDC3B_Y175_YF],inactive: 0.722
4,GTSLIYWTLFT [G6PC3_Y214],inactive: 1.13
5,ASFGPYTRVQS [FOXL2_Y258_YF],inactive: 0.675
6,SGDVQYRSSVR [FREM2_Y2158_T2153S],inactive: 0.53
7,FARNSYVAGQF [G6PD_Y107_YF],inactive: 0.665
8,KRGIDYILWHM [FRMD1_Y225_R228W],active: 3.41
9,FKELVYETVRV [FSHB_Y76],inactive: 0.93
10,LVRPPYSFSAL [FOXI1_Y126_YF],inactive: 0.942
11,KVPCHYDDPGK [FOXG1_Y246_R244C],inactive: 1.07
12,PSPMPYASCQM [FOXL2_Y215],inactive: 0.668
13,LSCLAYSGKDA [FXN_Y205_S202C],inactive: 1.7
14,GGGGGYNCSSG [FUS_Y232_R234C],inactive: 1.02
15,GTHCHYKAPIV [FZD9_Y569_T573I],inactive: 3.11
16,GTSLIYWILFT [G6PC3_Y214_T216I],inactive: 2.02
17,YVPSNYVAEDR [FRK_Y104_I100V],inactive: 0.853
18,FKIFLYTLNDN [FN1_Y1975_YF],inactive: 1.08
